# Laboratory results: ChEMBL document CHEMBL1156829
# In all, about 5,400 compounds were measured (“IFI”: median about 2, highest 2% from about 22 on). Some of the results follow.
# Experiment: NOVARTIS: Inhibition Frequency Index (IFI) - the number of HTS assays where a compound showed > 50% inhibition/induction, expressed as a percentage of the number of assays in which the compound was tested.
# Format: functional
row,SMILES,IFI
1,CC(C)n1nnnc1CN1CCN(c2ccccc2F)CC1,1.67%
2,Nc1nnc(CCSc2ccc(Cl)cc2)s1,0%
3,COc1ccccc1CNc1ncc(C(=O)NCc2ccccc2)c(NCCc2ccccc2)n1,1.92%
4,COc1cccc(C2C(C(=O)Nc3ccc(C)cc3C)=C(C)Nc3c(C(=O)Nc4ccccc4)cnn32)c1 (configuration not stated),0%
5,CN(C)CCNC(=O)COc1ccc(-c2nc3ccccc3s2)cc1CN(C)C,3.42%
6,CCCn1c(C=NNc2nc3ccccc3[nH]2)nc2ccccc21,0%
7,Clc1ccc(-n2cc(-c3ccccc3)c3c(N4CCC(Cc5ccccc5)CC4)ncnc32)cc1,8.33%
8,COC(=O)c1ccc(C2C3=C(O)CC(c4ccc(F)cc4)CC3=Nc3ccccc3N2C(=O)c2ccccc2)cc1 (configuration not stated),4.76%
9,Cc1ccc(Cl)cc1N1CCN(S(=O)(=O)c2ccc3c(c2)oc(=O)n3C)CC1,0%
10,CC(=O)N(C)C1=C(N2CCCCCC2)C(=O)c2ccccc2C1=O,22.5%
11,COCCCNc1nc2nonc2nc1N(C)C1CCOCC1,0%
12,COc1cc(C)c(CCNCCCCCCNCCc2cc(OC)c(OC)cc2C)cc1OC,2.38%
13,Cc1ccc(NC(=O)c2ccc(NCCCN3CCC(C)CC3)c([N+](=O)[O-])c2)cc1F,0%
14,CCN(CC)CCCNCC(=O)N1c2ccccc2Sc2ccccc21,0%
15,CC(=C(Cl)Cl)/C(Br)=C(\Br)CO,5%
16,Cc1ccc2c(c1)N(C)/C(=C/c1cccc[n+]1C)S2,15.4%
17,CN1CCCC(CNC(=O)c2cnn(-c3ncc4c(n3)-c3ccccc3SC4)c2C2CC2)C1 (configuration not stated),1.79%
18,COc1ccccc1NC1=C(N2CCCCC2)C(=O)c2ccccc2C1=O,17.6%
19,CC[n+]1c(/C=C2\Sc3cc(NC(C)=O)ccc3N2C)ccc2ccccc21,7.69%
20,CCN(CC)CCNc1ccnc2cc(Cl)ccc12,7.14%
21,Cc1ccc(C)c(N2CCN(CCCNC(=O)c3ccc(CSc4nc5cnccc5[nH]4)cc3)CC2)c1,8.57%
22,OC(CNc1cccc2ccccc12)Cn1c2ccc(Cl)cc2c2cc(Cl)ccc21 (configuration not stated),5.77%
23,CCCCN(CCCC)S(=O)(=O)c1cc(Br)cc2c1N(C(C)=O)CC2,0%
24,COc1ccc(C(=O)NC(c2ccc(C)cc2)c2cc(Cl)c3cccnc3c2O)cc1 (configuration not stated),0%
25,COc1cccc(C(NC(=O)c2ccccc2)c2ccc3cccnc3c2O)c1 (configuration not stated),10.6%

row,SMILES,IFI
1,CC(=O)N(C1=C(N2CCOCC2)C(=O)c2ccccc2C1=O)c1ccc(I)cc1,18.7%
2,CC1CCCCN1CCCNc1ncc(C(=O)NCCc2ccccc2)c(NCC2CCCCC2)n1 (configuration not stated),2.86%
3,C/C(C=NNC(=O)c1ccco1)=C\c1ccccc1,0%
4,CCOc1ccc(C=NNC(=O)CCn2nnc3ccccc32)cc1,0%
5,CC(=O)c1ccc(NC(=O)CSc2nnc3c4c(-c5ccc(F)cc5)csc4ncn23)cc1,5.88%
6,CCOC(=O)c1nnn(-c2nonc2N)c1-c1ccc(OC)cc1,0%
7,CCOc1ccc(C(=O)C(C)[n+]2cc(-c3ccc(OC)cc3)n3c2CCC3)cc1 (configuration not stated),8%
8,O=C(c1ccccc1F)N1CCN(Cc2ccccc2C(F)(F)F)CC1,1.18%
9,Cc1ccccc1Nc1nc(NCCO)c2ccccc2n1,0%
10,Cc1ccc(C(=O)N(CCc2ccccc2)C(C)c2nc3ccccc3c(=O)n2-c2cccc(Cl)c2C)cc1[N+](=O)[O-] (configuration not stated),1.92%
11,CCSc1nc2sc3c(c2c(=O)n1CC)CCN(C)C3,8%
12,CCC(C)OC(=O)C1=C(C)NC2=C(C(=O)CC(c3ccc(Cl)cc3)C2)C1c1cccc(O)c1 (configuration not stated),2.44%
13,CCCCCN(C(=O)c1ccc(Cl)cc1)C(CC)c1nc2ccccc2c(=O)n1-c1ccccc1OC (configuration not stated),1%
14,Cn1nc(C(=O)N2CCc3ccccc3C2)c2c1CCC(N1CCN(Cc3cccc(F)c3)CC1)C2 (configuration not stated),1.22%
15,CCCn1cc(SCC(=O)NCc2ccco2)c2ccccc21,1.15%
16,CCCCNC(=O)c1ccc2c(c1)N=C(c1cccnc1)N(CCN1CCOCC1)C2,2.44%
17,COc1ccc(S(=O)(=O)Nc2ccc(N3CCC(Cc4ccccc4)CC3)c(C(=O)NC(C)C)c2)cc1,2.08%
18,O=C1c2ccc(-c3nc(-c4ccccc4)[nH]c3-c3ccccc3)cc2-c2cc(-c3[nH]c(-c4ccccc4)nc3-c3ccccc3)ccc21,0%
19,CCOc1ccc(S(=O)(=O)c2cn(Cc3ccccc3C)c3ccc(OC)cc3c2=O)cc1,0%
20,O=C(NNc1nc2ccccc2nc1Cl)Nc1ccc(Cl)cc1,2.4%
21,Cc1cc(I)ccc1N1C(=O)C2C3c4ccccc4C(CO)(c4ccccc43)C2C1=O (configuration not stated),0%
22,COc1cc(C(=O)NCCc2ccccn2)ccc1OC1CCN(CC(c2ccccc2)c2ccccc2)CC1,1.37%
23,CCOP1(=O)COc2ccccc2OC1,0%
24,C=C[C@H]1CN2CC[C@H]1C[C@@H]2[C@@H](O)c1ccnc2ccc(OC)cc12,1.67%
25,O=C1CSC2=NCN(c3cccc(Cl)c3)CN12,2.08%

row,SMILES,IFI
1,CCc1ccc(NC(=O)COC(=O)c2cccs2)cc1,0%
2,O=C(Nc1ccc(N2CCCCC2)cc1)N1CCc2nc[nH]c2C1,5.41%
3,COC(=O)[C@@H]1C[C@@H](NC(=O)c2ccc(C)cc2)CN1Cc1ccc(OC)c(C)c1OC,0.885%
4,COc1ccc(C2Nc3ccc([N+](=O)[O-])cc3C3C=CCC32)cc1[N+](=O)[O-] (configuration not stated),8.33%
5,CCCCCCN(C(=O)c1cccc([N+](=O)[O-])c1)C(CC)c1nc2ccccc2c(=O)n1-c1ccccc1OC (configuration not stated),2.86%
6,CCCCCCCN(CCCCCCC)CC(O)c1cc2ccccc2c2cc(Br)ccc12 (configuration not stated),0.885%
7,Cc1ccn2c(NC(C)(C)CC(C)(C)C)c(-c3ccccc3OC(=O)c3ccc(C)c([N+](=O)[O-])c3)nc2c1,3.74%
8,CCCCCCOc1ccc(NC(=O)c2cccs2)cc1,0%
9,O=C(N=CNNc1ccccc1F)c1cc(OCC(F)(F)F)ccc1OCC(F)(F)F,3.9%
10,CCOC(=O)c1nnn(-c2nonc2N)c1-c1ccc(OC)c(OC)c1,0%
11,CN(C)c1ccc(/C=C2\SC(=N)N(c3nccs3)C2=O)cc1,16.7%
12,Cc1nc(-c2ccccc2)nc(C(=O)N2CCN(S(=O)(=O)/C=C/c3ccccc3)C(C)C2)c1C(=O)OCC(C)C (configuration not stated),1.89%
13,Cc1ccc(-n2c(SCc3ccc(F)cc3)nnc2C(Cc2ccccc2)NC(=O)NC(C)(C)C)cc1 (configuration not stated),3.26%
14,Cc1ccc(C(=O)Oc2ccccc2-c2nc3ccccn3c2NC(C)(C)CC(C)(C)C)cc1[N+](=O)[O-],2.83%
15,CCCN1CCc2c(sc3nc(SCC(=O)c4ccccc4)nc(N)c23)C1,8%
16,Cc1cc(C)cc(C(=O)Nc2c3c(nn2-c2cccc(C)c2C)CS(=O)(=O)C3)c1,4.71%
17,Cn1c2c([n+](C)c1CCl)C(=O)c1ccccc1C2=O,35.7%
18,CC(=O)c1ccc(N2CCN(Cc3cc(-c4ccnc5cc(Cl)ccc45)ccc3O)CC2)cc1,3%
19,CCNC(=O)N(CCCCOc1ccc(C(C)(C)CC)cc1C(C)(C)CC)Cc1ccc(OC)c(OCc2ccccc2)c1,0.943%
20,CNC(=O)c1ccc(NC(=O)Nc2ccc(C3=NCCCN3)cc2)cc1NC(=O)Nc1ccc(C2=NCCCN2)cc1,0.909%
21,O=S(=O)(c1ccccc1)N1CCN(CC2CNCCO2)CC1 (configuration not stated),1.41%
22,CCOC(=O)C1=C(C)NC2=C(C(=O)CC(c3ccc(OC)c(OC)c3)C2)C1c1ccc(SC)cc1 (configuration not stated),5.88%
23,Cc1cc(Nc2ccc(O)cc2)nc2cccc(O)c12,0%
24,COc1cccc(OCC(=O)NN=C(C)CC(=O)NCc2ccco2)c1,0%
25,Cc1ccc(Cn2c(SCc3ccc(C(=O)NCCc4ccccc4)cc3)nc3ccncc32)cc1,0%

row,SMILES,IFI
1,c1cncc(CCNc2nccn3c(-c4cccc5ccccc45)cnc23)c1,0%
2,COc1cc(NC(C)CCCN(Cc2ccccc2OC)C(=O)c2ccc(Cl)c([N+](=O)[O-])c2)c2ncccc2c1 (configuration not stated),5.43%
3,COc1ccc(-c2c[n+](CC(=O)c3ccccc3)c3n2CCC3)cc1,2.38%
4,Oc1cccc2ccc[n+](CC(O)Cn3c4ccccc4c4ccccc43)c12 (configuration not stated),0%
5,COc1cccc(-c2cn3c(n2)sc2cc(C(=O)NC4CCN(Cc5ccccc5)CC4)ccc23)c1,10.5%
6,CC(=O)c1cccc(CN2CCC(C(=O)Nc3ccc(-n4nc(C)cc4C)cc3)CC2)c1,0%
7,CCCCCCCCCC(=O)Oc1ccccc1-c1nc2cc(C)ccn2c1NC(C)(C)CC(C)(C)C,2.17%
8,O=c1[nH]nc(SCc2c(F)cccc2[N+](=O)[O-])c(=O)[nH]1,0%
9,Cn1nc(C(=O)N2CCCC2)c2c1CCC(NCc1cnc3ccccc3c1)C2 (configuration not stated),2.47%
10,CCOc1ccc2[nH]c3c(NCCN(C)C)ncnc3c2c1,3.12%
11,CCNC(=O)NCCSc1nc(-c2ccc(OC)cc2)c(-c2ccc(OC)cc2)n1CC,2.75%
12,CCOC(=O)c1ccc(N2CCN(c3ccc(F)cc3)CC2)c(NC(=O)Nc2ccccc2)c1,0%
13,COc1ccc(OC)c(-c2ccc(O)c(CNCC3(N4CCCCC4)CCCCC3)c2)c1,0.885%
14,CCNC(=S)NC1CC2CCCC(C1)N2CCc1ccccc1 (configuration not stated),2.6%
15,CS(=O)(=O)c1cnc2ncnn2c1C1CCCN(C(=O)c2ccccn2)C1 (configuration not stated),0%
16,Cc1ccc2c(c1)NC(c1ccc(F)cc1)C1=C(CC(c3ccccc3)CC1=O)N2 (configuration not stated),2.35%
17,CC(C)(C)Cc1ccc(OCCCC(=O)Nc2ccc(Cl)c(N)c2)c(CC(C)(C)C)c1,8.4%
18,CC(C)c1ccc(NC(=O)/C=C/c2ccccc2Cl)cc1,0%
19,O=C(CCN1C(=O)C2CCCCC2C1=O)N1CCc2ccccc2C1 (configuration not stated),1.56%
20,O=C(Nc1ccccc1)c1ccccc1OCC(O)Cn1c2ccccc2c2ccccc21 (configuration not stated),0%
21,Cc1sc2nc(C3CC3)n(C3CCN(C(=O)c4ccccn4)CC3)c(=O)c2c1C,0%
22,Cc1cc(N2CCN(Cc3ccc(F)cc3)CC2)n2c(nc3ccccc32)c1C#N,1.18%
